PubChem BioAssay AID504332 (National Center for Advancing Translational Sciences (NCATS), 2011)
In all, about 350,000 compounds went through this assay and about 31,000 (8.9%) were called active. Inconclusive results, whose numbers are uncertain, are shown with a selection of clear calls. Calls follow the shape of the dose curve; as a rule, active = well fitted inhibition curve with a large enough effect; inconclusive = small, poorly fitted or top-dose-only effect; inactive = no such curve, though single readings can be large or run the other way. A potency beside an inconclusive call is a rough fit, not a confirmed value.

biological target: Histone-lysine N-methyltransferase EHMT2 (Homo sapiens) (UniProt Q96KQ7); test: qHTS Assay for Inhibitors of Histone Lysine Methyltransferase G9a; details: G9a H3K9 monomethylation, AlphaScreen, 2 h; activity, negative = inhibition: at 59 µM (top of the series) unless noted; also: nearly all actives have a fitted effect of over 75% in size
Chain of UniProt Q96KQ7 (Q96KQ7 whole entry, looked up): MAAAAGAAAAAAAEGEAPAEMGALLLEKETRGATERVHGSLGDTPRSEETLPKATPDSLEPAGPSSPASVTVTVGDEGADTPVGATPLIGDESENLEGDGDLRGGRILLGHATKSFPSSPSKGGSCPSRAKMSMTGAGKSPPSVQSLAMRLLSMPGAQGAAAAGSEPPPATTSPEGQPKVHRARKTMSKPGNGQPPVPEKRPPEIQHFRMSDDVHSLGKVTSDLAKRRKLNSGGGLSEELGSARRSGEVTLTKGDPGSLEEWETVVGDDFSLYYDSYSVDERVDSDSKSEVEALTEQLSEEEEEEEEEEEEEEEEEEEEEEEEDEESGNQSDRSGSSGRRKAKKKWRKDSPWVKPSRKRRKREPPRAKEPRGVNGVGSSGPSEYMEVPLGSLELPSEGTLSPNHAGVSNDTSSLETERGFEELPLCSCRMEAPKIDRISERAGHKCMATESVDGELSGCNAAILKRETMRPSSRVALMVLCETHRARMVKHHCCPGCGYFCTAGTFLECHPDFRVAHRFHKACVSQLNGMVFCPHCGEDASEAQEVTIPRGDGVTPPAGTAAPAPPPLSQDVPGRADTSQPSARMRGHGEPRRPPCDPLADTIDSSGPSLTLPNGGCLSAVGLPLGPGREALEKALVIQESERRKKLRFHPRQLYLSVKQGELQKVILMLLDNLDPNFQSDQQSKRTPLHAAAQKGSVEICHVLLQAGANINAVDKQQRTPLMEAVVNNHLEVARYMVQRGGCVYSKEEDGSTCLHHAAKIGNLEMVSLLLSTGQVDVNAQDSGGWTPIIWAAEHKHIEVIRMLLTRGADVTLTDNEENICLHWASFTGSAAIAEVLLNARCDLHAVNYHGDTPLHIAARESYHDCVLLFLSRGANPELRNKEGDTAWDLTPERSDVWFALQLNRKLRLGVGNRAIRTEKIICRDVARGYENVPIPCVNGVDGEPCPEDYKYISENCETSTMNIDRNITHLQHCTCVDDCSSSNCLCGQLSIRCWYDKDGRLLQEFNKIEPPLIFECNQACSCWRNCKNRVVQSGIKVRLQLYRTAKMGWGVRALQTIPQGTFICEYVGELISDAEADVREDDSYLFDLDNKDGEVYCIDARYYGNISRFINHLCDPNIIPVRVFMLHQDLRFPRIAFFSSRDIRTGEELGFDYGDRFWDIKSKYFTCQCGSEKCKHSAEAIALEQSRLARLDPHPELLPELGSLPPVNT
Summary of the method: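 G9a (20 nM) preincubated 15 min RT with compounds, then 500 nM biotinylated H3K9 peptide and 20 uM SAM added; 2 h RT reaction. Monomethyl-H3K9 product detected by AlphaScreen with anti-H3K9me1 antibody, streptavidin donor and anti-rabbit IgG acceptor beads.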
% is scaled to controls: 0 for no effect and ±100 for the full control effect; potency is read from the fitted curve at half-maximal effect; tags tell the direction and shape of the fitted curve.

Row | SMILES | activity, negative = inhibition | Potency
1 | CCn1cc(C(=O)NCCc2ccc(Cl)cc2)c(=O)c2cc(S(=O)(=O)N3CCc4ccccc4C3)ccc21 | inactive: -13.3% | 
2 | COc1ccccc1OCc1ccc(C(=O)N2CCOCC2)o1 |  | inconclusive: 89.1 µM [inhibitor, single point]
3 | CCCCn1c(=O)n(CC(=O)Nc2ccc(C)c(Cl)c2)c(=O)c2c1ncn2Cc1ccco1 |  | active: 25.1 µM
4 | CC(C)CC(=O)NC(=S)Nc1cc(C(=O)O)ccc1Cl | inactive: 10.6% | 
5 | Cc1cc2n(n1)C(c1ccccc1)CC(c1ccc(Br)cc1)=N2 (stereo not drawn) |  | active: 39.8 µM
6 | Cc1c(C(=O)c2ccccc2)c2ccccn2c1CCC#N |  | inconclusive: 79.4 µM [inhibitor, single point]
7 | Cc1c(Cl)cccc1NC(=S)NC1CCN(C(C)C)CC1 |  | inconclusive: 89.1 µM [inhibitor, partial curve, poor fit]
8 | CCCCCC[n+]1c(-c2ccccc2)csc1Nc1ccccc1 |  | active: 15.8 µM
9 | Cc1noc(/C=C/N(C)C)c1S(=O)(=O)N1CCN(c2ccccc2)CC1 |  | inconclusive: 89.1 µM [inhibitor, single point]
10 | COc1cccc(-c2csc(N3CCN(C(=S)Nc4cccc(C)c4)CC3)n2)c1 |  | inconclusive: 50.1 µM [inhibitor, partial curve]
11 | O=C1C2C3C=CC(C3=C3CCCCC3)C2C(=O)N1Cc1ccccc1 (stereo not drawn) | inconclusive: -67.7% [inhibitor] | 
12 | Fc1ccc(-c2nc(-c3cccs3)c(-c3cccs3)[nH]2)cc1 | inactive: -6.05% | 
13 | Nc1c([N+](=O)[O-])c(=O)sc2ccccc12 | inactive: 8.2% [at 102 µM] | 
14 | COc1ccc(NC(=O)c2ccccc2O)c(OC)c1 | inactive: -1.05% [at 102 µM] | 
15 | CCOc1ccc(-c2[nH]ncc2-c2csc(C)n2)c(O)c1 |  | inconclusive: 89.1 µM [inhibitor, single point]
16 | Cc1c(NC(=O)Cc2ccc(F)cc2)cccc1-c1nc2cccnc2s1 |  | inconclusive: 25.1 µM [inhibitor, partial curve, poor fit]
17 | Cc1cc(C)c(-c2csc(NC(=O)C3=COCCO3)n2)c(C)c1 |  | inconclusive: 79.4 µM [inhibitor, single point]
18 | CCCc1nc(N2CCN(S(=O)(=O)c3ccc(Cl)cc3)CC2)c2c(C)c(C)sc2n1 | inactive: -13.7% [at 102 µM] | 
19 | CNC(=O)NC(=O)CSc1nnc(-c2ccco2)n1-c1ccccc1 |  | inconclusive: 39.8 µM [inhibitor, single point]

Row | SMILES | activity, negative = inhibition | Potency
20 | C=CCNC(=O)C(C#N)c1nc2ccccc2nc1N1CCCCCC1 (stereo not drawn) |  | inconclusive: 31.6 µM [inhibitor, single point]
21 | O=C1CCCC/C1=C/Nc1cccc(C(F)(F)F)c1 |  | inconclusive: 0.1 µM [inhibitor, full curve, poor fit]
22 | CCOC(=O)c1cc2c(=O)n3ccccc3nc2n(CCCOC)c1=NC(=O)c1cccnc1 |  | active: 10 µM
23 | CC(=O)c1cnc2c(-c3ccccc3)c(-c3ccccc3)nn2c1C |  | inconclusive: 22.4 µM [inhibitor, single point]
24 | O=S(=O)(CCN(CCS(=O)(=O)C(F)(F)F)CC1CCCO1)C(F)(F)F (stereo not drawn) |  | inconclusive: 25.1 µM [inhibitor, single point]
25 | CC(C)c1ccc(CNc2ncc(Br)cn2)cc1 | inactive: 0.421% [at 102 µM] | 
26 | CCOC(=O)c1nc2cc3n(c(CC(C)C)c-2c1C)CC(C)=C3C |  | active: 3.16 µM
27 | C=CCOc1cccc(C2C(C(=O)c3ccco3)=C(O)C(=O)N2Cc2ccncc2)c1 (stereo not drawn) |  | inconclusive: 2.82 µM [inhibitor, partial curve, poor fit]
28 | COc1ccc(OC)c(NC(=O)CCN2CCN(c3ccccc3F)CC2)c1 |  | inconclusive: 79.4 µM [inhibitor, single point]
29 | CCn1cc(C(=O)Nc2sc(C)c(C)c2C(=O)OC)cn1 |  | inconclusive: 39.8 µM [inhibitor, single point]
30 | CCC(=O)N1CCc2cc(S(=O)(=O)CCC(=O)N3CCN(c4ccccc4Cl)CC3)ccc21 | inactive: 0.639% | 
31 | O=C(NCCOCCO)C(=O)Nc1c2c(nn1-c1ccc(F)cc1)CSC2 |  | active: 12.6 µM
32 | CCOC(=O)c1c(N)c(C#N)cn1-c1ccccc1 |  | inconclusive: 79.4 µM [inhibitor, partial curve, poor fit]
33 | CCN(C(=O)CSc1nnc(-c2ccco2)n1C)c1c(N)n(Cc2ccccc2)c(=O)[nH]c1=O |  | inconclusive: 35.5 µM [inhibitor, single point]
34 | N#CC1=C(N)SC(N)=C(C#N)C1c1ccnc2ccccc12 |  | active: 2.51 µM
35 | CCOC(=O)C1CCN(Cc2ccc(-c3ccccc3)cc2)CC1 |  | active: 28.2 µM
36 | CCOC(=O)c1c(C)n(C)c2ccc(OCC(O)CNC(CC)CO)cc12 (stereo not drawn) |  | inconclusive: 89.1 µM [inhibitor, single point]
37 | Cc1sc(NC(=O)COc2ccccc2)c(C#N)c1C |  | active: 10 µM
38 | O=C(CCCc1ccccc1)Nc1ccnn1C1CCN(Cc2ccccn2)CC1 |  | active: 79.4 µM
